The campaign covered roughly 310,000 compounds. About 14,000 (4.5%) showed an effect of 50% or more. The effect is printed as a negative number. Some of the results follow.
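Note: peak tail current of the secondary pulse compared with the same well before compound.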

Chain of human ether-à-go-go-related gene (hERG) potassium channel (Q12809 whole entry, looked up): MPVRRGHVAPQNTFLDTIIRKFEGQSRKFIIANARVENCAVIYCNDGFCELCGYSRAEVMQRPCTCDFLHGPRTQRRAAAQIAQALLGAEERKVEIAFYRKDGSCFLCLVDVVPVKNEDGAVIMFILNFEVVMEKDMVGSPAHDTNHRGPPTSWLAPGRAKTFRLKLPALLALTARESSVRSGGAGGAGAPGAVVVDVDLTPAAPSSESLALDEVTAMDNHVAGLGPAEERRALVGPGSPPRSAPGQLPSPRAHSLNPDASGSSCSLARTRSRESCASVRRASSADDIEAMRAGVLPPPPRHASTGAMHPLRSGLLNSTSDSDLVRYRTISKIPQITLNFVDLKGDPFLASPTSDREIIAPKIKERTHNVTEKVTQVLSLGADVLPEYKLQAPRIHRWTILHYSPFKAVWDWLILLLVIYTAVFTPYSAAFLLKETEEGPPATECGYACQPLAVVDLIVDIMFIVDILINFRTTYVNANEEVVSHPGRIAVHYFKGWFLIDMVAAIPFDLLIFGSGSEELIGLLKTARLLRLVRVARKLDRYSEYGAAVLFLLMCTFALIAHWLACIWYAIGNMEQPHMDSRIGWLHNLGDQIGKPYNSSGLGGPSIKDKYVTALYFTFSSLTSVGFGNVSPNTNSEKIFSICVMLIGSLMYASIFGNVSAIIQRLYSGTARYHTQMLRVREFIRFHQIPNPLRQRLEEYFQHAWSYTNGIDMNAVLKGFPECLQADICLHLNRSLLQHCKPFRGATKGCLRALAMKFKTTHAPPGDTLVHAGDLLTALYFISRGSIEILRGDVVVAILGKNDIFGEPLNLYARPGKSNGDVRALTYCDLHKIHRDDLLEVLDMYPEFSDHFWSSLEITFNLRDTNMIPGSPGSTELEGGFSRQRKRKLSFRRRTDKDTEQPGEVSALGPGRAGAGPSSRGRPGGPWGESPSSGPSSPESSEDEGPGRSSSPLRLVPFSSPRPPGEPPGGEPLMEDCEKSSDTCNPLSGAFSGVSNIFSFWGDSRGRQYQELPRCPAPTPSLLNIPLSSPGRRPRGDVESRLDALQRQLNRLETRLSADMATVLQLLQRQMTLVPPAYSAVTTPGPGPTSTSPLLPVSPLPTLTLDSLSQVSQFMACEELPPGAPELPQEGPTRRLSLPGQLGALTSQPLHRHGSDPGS

The assay addresses human ether-à-go-go-related gene (hERG) potassium channel (human, UniProt Q12809). Kind of assay: primary screen, population patch clamp on CHO cells stably expressing hERG.
On to `CC1CC(c2ccccc2)n2nc(NC(=O)CCc3ccccc3)nc2N1` (centres unmarked), for which the “hERG current change (%, negative = inhibition) at 10uM” value is given as -36.6%.

`COc1ccccc1NC(=O)CCc1nnc2ccc(N3CCC4(CC3)OCCO4)nn12`: the “hERG current change (%, negative = inhibition) at 10uM” value is recorded as -1%.

For the compound `O=C(O)c1cnc(-c2ccccc2)nc1Sc1ccc(Cl)cc1`, the “hERG current change (%, negative = inhibition) at 10uM” value worked out at 3.92%.

In the case of `CCOP(=O)(OCC)C(NC(C)=O)C(Cl)(Cl)Cl` (centres unmarked), the “hERG current change (%, negative = inhibition) at 10uM” value stood at 10.1%.

With `O=C(Nc1ccccc1)C1=C[C@H](c2csc3ccccc23)C[C@H](OCc2ccc(CO)cc2)O1`, the “hERG current change (%, negative = inhibition) at 10uM” value was 7.14%.

For `CC(OC(=O)CCN=C1NS(=O)(=O)c2ccccc21)C(=O)N(C)c1ccccc1` (centres unmarked), the “hERG current change (%, negative = inhibition) at 10uM” value is listed as -14.7%.

With `CCCOC(=O)c1ccc(-c2c(C)noc2-c2ccc(OC)cc2O)o1`, the “hERG current change (%, negative = inhibition) at 10uM” value was found to be 9.02%.

In the case of `NC(=O)c1ccccc1NC(=O)c1cc(S(=O)(=O)N2CCCCC2)ccc1N1CCOCC1`, the “hERG current change (%, negative = inhibition) at 10uM” value is reported as -73.9%.

For the compound `COc1cc(-c2cc(C(=O)NN3CCN(C)CC3)c3ccccc3n2)cc(OC)c1OC`, the “hERG current change (%, negative = inhibition) at 10uM” value came out at 16.7%.

As to `Cc1c(-c2ccc(F)cc2)nc(N)c(C#N)c1-c1ccco1`, the “hERG current change (%, negative = inhibition) at 10uM” value was found to be 6.39%.

As for `O=C1CCCc2ccccc2N1Cc1cccc(F)c1`, the “hERG current change (%, negative = inhibition) at 10uM” value amounted to 11.4%.

For `CCC(CC)c1nnc(NC(=O)c2cc([N+](=O)[O-])ccc2N2CCCCC2)s1`, the “hERG current change (%, negative = inhibition) at 10uM” value is 8.26%.

For `Oc1ccc(Br)cc1CNc1ccccn1`, the “hERG current change (%, negative = inhibition) at 10uM” value is -15.7%.

Take `COC(=O)c1ccc(OC)c(CN2CCCN(Cc3ccc(F)cc3)S2(=O)=O)c1`: the “hERG current change (%, negative = inhibition) at 10uM” value was -10.2%.

For the compound `CC(C)C1Cc2[nH]c(=O)c(C(=O)O)cc2CO1` (centres unmarked), the “hERG current change (%, negative = inhibition) at 10uM” value is given as -12.9%.

As to `Cc1c(Cl)cccc1NC(CC(=O)c1ccccc1)C(=O)OCC(=O)c1cccs1` (centres unmarked), the “hERG current change (%, negative = inhibition) at 10uM” value is -5%.

Turning to `CCS(=O)(=O)c1ccc(N)cc1.Cl`, the “hERG current change (%, negative = inhibition) at 10uM” value is listed as 16%.

Take `CSc1ncc(Sc2ccccc2)c(C(=O)O)n1`: the “hERG current change (%, negative = inhibition) at 10uM” value amounted to 8.34%.

Consider `Cc1cc(Cl)ccc1OCC(=O)n1cc(C(=O)c2cc(Cl)ccc2O)cn1`, for which the “hERG current change (%, negative = inhibition) at 10uM” value turned out to be 5.34%.

On to `Cc1ccccc1NC(=O)c1c(F)c(F)c(F)c(F)c1F`, for which the “hERG current change (%, negative = inhibition) at 10uM” value is 7.17%.

Consider `CC(C)CCNC(=O)C(c1cccnc1)N(CCc1ccccc1)C(=O)Cn1nnc2ccccc21` (centres unmarked), for which the “hERG current change (%, negative = inhibition) at 10uM” value is given as -1.9%.

With `O=C(N/N=C\c1ccc(Cl)s1)c1ccc(Cn2cccn2)o1`, the “hERG current change (%, negative = inhibition) at 10uM” value is -57.2%.

Turning to `CC(C)NS(=O)(=O)c1ccc(CCC(=O)Nc2ccc3c(c2)OCO3)cc1`, the “hERG current change (%, negative = inhibition) at 10uM” value came to 1.66%.

Regarding `COc1cc(C(=O)Nc2ccc(NC(=O)c3ccco3)nc2)cc(OC)c1OC`, the “hERG current change (%, negative = inhibition) at 10uM” value turned out to be 11.3%.

On to `Cc1cc(NC(=O)C2CCCO2)ccc1Br` (centres unmarked), for which the “hERG current change (%, negative = inhibition) at 10uM” value turned out to be 9.44%.

As for `c1ccc2c(-c3cc(C4CCNCC4)[nH]n3)cccc2c1`, the “hERG current change (%, negative = inhibition) at 10uM” value is reported as -16.2%.

On to `Cc1cccc(C(=O)N[C@@H](C)C(=O)N2CCN(c3ncccn3)CC2)c1`, for which the “hERG current change (%, negative = inhibition) at 10uM” value was -3.21%.

Regarding `O=C(CCl)c1ccc2c(c1)CCN2C(=O)C1CCCCC1`, the “hERG current change (%, negative = inhibition) at 10uM” value was 10.7%.

In the case of `O=C(Cc1cccc2ccccc12)N/N=C/c1ccc2cccc(O)c2n1`, the “hERG current change (%, negative = inhibition) at 10uM” value came out at 5.86%.

On to `CCCCC/S(CC1CC1(Cl)Cl)=N\S(=O)(=O)c1ccc(C)cc1` (centres unmarked), for which the “hERG current change (%, negative = inhibition) at 10uM” value is 15.8%.

For `O=C(NCc1cccs1)C1CCCN(c2ncccn2)C1` (centres unmarked), the “hERG current change (%, negative = inhibition) at 10uM” value is listed as -3.75%.

As to `Cc1ccc(CN(C(=O)c2cccs2)C2CCS(=O)(=O)C2)cc1` (centres unmarked), the “hERG current change (%, negative = inhibition) at 10uM” value was -46.5%.

For the compound `CCN(CC)c1ccc2cc(-c3nc4ccccc4n3C)c(=O)oc2c1`, the “hERG current change (%, negative = inhibition) at 10uM” value is reported as 22.9%.

Take `Cc1cc(S(=O)(=O)N2CCOCC2)ccc1NC(=O)c1ccc(F)cc1`: the “hERG current change (%, negative = inhibition) at 10uM” value was found to be 1.32%.

On to `CCOC(=O)N1CCN(C(=O)CSc2nnc(-c3ccc(C)c(C)c3)o2)CC1`, for which the “hERG current change (%, negative = inhibition) at 10uM” value is on record as -8.27%.

In the case of `O=C(Nc1nc(-c2nc3ccccc3s2)cs1)c1ccco1`, the “hERG current change (%, negative = inhibition) at 10uM” value came out at 8.82%.

On to `S=c1[nH]nc(-c2ccco2)n1/N=C/c1cccc(Cl)c1`, for which the “hERG current change (%, negative = inhibition) at 10uM” value stood at 17.6%.

As to `CC1CC(=S)Nc2ccccc2N1C(=O)Nc1ccccc1` (centres unmarked), the “hERG current change (%, negative = inhibition) at 10uM” value is given as 4.1%.

For `CCOC(=O)C(C)Sc1cc(CS(=O)(=O)c2ccccc2)nc(-c2ccccc2)n1` (centres unmarked), the “hERG current change (%, negative = inhibition) at 10uM” value is listed as 15.9%.

Turning to `COc1cc(C(=O)Nc2cc(-c3nc4cc(C)ccc4o3)ccc2C)cc(OC)c1OC`, the “hERG current change (%, negative = inhibition) at 10uM” value is recorded as 15%.

For the compound `C[C@H](NC(=O)C1CCN(C(=O)[C@H](Cc2ccccc2)NC(=O)OC(C)(C)C)CC1)C(=O)O`, the “hERG current change (%, negative = inhibition) at 10uM” value was found to be 4.15%.

For the compound `Nc1nc2n(n1)C(c1ccccc1)CC(c1ccc(F)cc1)N2` (centres unmarked), the “hERG current change (%, negative = inhibition) at 10uM” value is listed as -10.1%.

Turning to `CC(C)C(=O)N1CCC2(CC1)Oc1ccc(F)cc1C(=O)C21CC(c2ccccc2)=NO1` (centres unmarked), the “hERG current change (%, negative = inhibition) at 10uM” value is -27.2%.

In the case of `O=C(NCCCn1ccnc1)c1cc2ccccc2o1`, the “hERG current change (%, negative = inhibition) at 10uM” value is given as -18.2%.

Consider `O=C(CCCOc1ccccc1)N1CCCc2ccccc21`, for which the “hERG current change (%, negative = inhibition) at 10uM” value was -9.15%.

For `COCCNC(=O)c1cccc(C)c1[N+](=O)[O-]`, the “hERG current change (%, negative = inhibition) at 10uM” value is recorded as -2.91%.

In the case of `O=C(NC1CC1)C1=C[C@H](c2ccc3c(c2)OCO3)C[C@H](OCc2ccc(CO)cc2)O1`, the “hERG current change (%, negative = inhibition) at 10uM” value was -4.26%.

`CC1CC(OCC(O)CN2CCN(Cc3ccccc3)CC2)CC(C)(C)C1.Cl` (centres unmarked): the “hERG current change (%, negative = inhibition) at 10uM” value is -43.5%.

`COc1cccc(C(=O)C2=NN(C(C)=O)CC2c2ccco2)c1` (centres unmarked): the “hERG current change (%, negative = inhibition) at 10uM” value is reported as -15.8%.

As for `Cc1nn(-c2ccccc2)c(N2CCCC2)c1/C=N/n1cnc2scc(-c3ccccc3)c2c1=O`, the “hERG current change (%, negative = inhibition) at 10uM” value is -3.64%.

`CNC(=S)N(CCc1c(C)[nH]c2ccc(OC)cc12)Cc1cccnc1`: the “hERG current change (%, negative = inhibition) at 10uM” value came to 9.25%.

Take `O=C(CSCc1ccccc1)N1CCN(S(=O)(=O)c2ccc(F)cc2)CC1`: the “hERG current change (%, negative = inhibition) at 10uM” value worked out at 11.3%.

`Cc1cc(NC2CCCCC2)nc2ccccc12`: the “hERG current change (%, negative = inhibition) at 10uM” value is given as -17.5%.

For `CCCCOc1cccc(NC(=O)CSc2nccn2C)c1`, the “hERG current change (%, negative = inhibition) at 10uM” value is listed as -17.3%.

`Cc1ccc(N2CCN(S(=O)(=O)c3nnc(NC(=O)c4ccco4)s3)CC2)cc1`: the “hERG current change (%, negative = inhibition) at 10uM” value was 15.6%.

In the case of `Cc1ccc(NC2CCCN(C(=O)c3ccc(C)c(N4CCNC4=O)c3)C2)cc1C` (centres unmarked), the “hERG current change (%, negative = inhibition) at 10uM” value is recorded as 2.47%.
